Assay results reported in ChEMBL document CHEMBL4888484, “Replenishing the malaria drug discovery pipeline: Screening and hit evaluation of the MMV Hit Generation Library 1 (HGL1) against asexual blood stage Plasmodium falciparum ,using a nano luciferase reporter read-out” (2022).
Screen size: about 150,000 compounds; about 540 (0.36%) showed an effect of 50% or more. This is one part of the list.

system: Plasmodium falciparum; assay: Primary screen in NF54 nanoGlo assay, in single point, at 2uM, 72h; a lower Z score goes with more inhibition; assay type: functional, Erythrocyte; settings: timepoint 72 hour

SMILES | % Inhibition | Z score
Cc1cccc(C)c1NC(=O)[C@H](C)n1cnc2onc(-c3ccc(Cl)cc3)c2c1=O | -12% | 1.68
O=C(Oc1ccc2c(c1)OCO2)c1ccc(S(=O)(=O)N2CCOCC2)cc1 | -87% | 16.34
CC1CCN(c2ccc(NC(=O)NC(C)C3CCCO3)cc2)C1 (stereo not drawn) | -4% | 0.53
Cc1cccc(OCC(=O)NCCn2c(C(F)(F)F)nc3cccnc32)c1 | -9% | 1.18
CCC(C#N)C(=O)N[C@@H]1C[C@@H](C)Oc2ccccc21 (stereo partly drawn) | -15% | 2.12
COc1ccc(NC(=O)Cn2cc(C(=O)c3ccncc3)c(=O)c3ccc(F)cc32)cc1Cl | 0% | 0.06
N#Cc1c(NC(=O)CN2CC[C@H](C(N)=O)C2)sc2c1CCCC2 | -8% | 1.31
Cc1nc[nH]c1CN1C[C@H]2CC[C@@H](C1)N(C(=O)c1ccncc1F)C2 | -4% | 0.51
COc1cc(Cl)c(C)cc1NC(=O)c1cnn[nH]1 | -17% | 3.31
c1cnc(N2CCN([C@H]3CCOC3)CC2)nc1 | 2% | -0.33
O=C(Cn1nnc2ccccc21)NCCn1nc(-n2cncn2)ccc1=O | 6% | -0.94
COc1ccc(NC(=O)N(Cc2nccs2)C2CC2)c(OC)n1 | 1% | -0.11
CCC(=O)N1CCc2nc(N3CCN(Cc4cccnc4)CC3)sc2C1 | -10% | 1.68
O=C1NC2(CCCC2)C(=O)N[C@H]1COCc1ccccc1 | 4% | -0.54
COc1ccc(OC)c(NC(=O)C2CCCN2S(=O)(=O)c2cc3c(cc2C)NC(=O)C(C)O3)c1 (stereo not drawn) | 4% | -0.73
CC1CC(C)CN(C(=O)CCc2ccsc2)C1 (stereo not drawn) | -3% | 0.27
CCn1c(CC2CCN(C(=O)CCn3cc(C)cn3)CC2)nn(C)c1=O | 6% | -0.84
COCCN(CC1(C)CCOCC1)C(=O)c1sccc1C | 8% | -1.39
CCN(CC)Cc1cccc(C(=O)Nc2nc(C)n(C)n2)c1 | -6% | 1.21
O=C(NC[C@H](c1cccs1)c1c[nH]c2ccccc12)c1ccc(Cl)cc1 | -10% | 0.84
CCCS(=O)(=O)N(CCOC)CC(=O)N(Cc1ccc(Cl)cc1)C1CCN(C(=O)c2ccccc2OC)CC1 | 2% | -0.32
C[C@H](NC(=O)CC1CCCCC1)C(=O)NCC(C)(C)N(C)C | -5% | 0.78
Cc1cc(C(=O)Nc2sc(C)c(C)c2C(=O)NCc2cccnc2)no1 | -6% | 0.82
CC[C@H](NC(=O)Nc1cccc(-c2ncc(C)o2)c1)c1nccs1 | -10% | 1.32
CCN1CC(=O)N[C@H]2CN(S(=O)(=O)N(C)C)CC[C@@H]2OCc2cccc(c2)Oc2cccc(c2)CC1=O | -4% | 0.8
CN(C)C(=O)c1cccc(CN[C@H]2CCc3c(O)cccc32)c1 | -6% | 0.98
Cn1cc(C(=O)NC2CCN(Cc3ncc(Cl)n3C)CC2)cn1 | -1% | 0.14

SMILES | % Inhibition | Z score
O=C(Nc1ccc(Nc2ccccc2)cc1)c1cc(C2CC2)on1 | 6% | -0.7
COc1ccc2nc(O)c(CCC(=O)NCCN3CCOCC3)cc2c1 | 1% | -0.1
OCC[C@H]1CCc2ccccc2N1Cc1ccon1 | 10% | -1.27
CN(CCC1(O)CCCC1)C(=O)c1ncn[nH]1 | -12% | 2.32
CCn1nc(C)cc1S(=O)(=O)NC(c1ccccc1)[C@H]1C[C@@H](O)C1 (stereo partly drawn) | 7% | -1.38
Cc1oc2cc(C#N)c(C#N)cc2c1[C@H](C)O | -5% | 0.75
CN(C)S(=O)(=O)N(C)Cc1ccc(F)cc1Cl | -9% | 0.85
Cc1ccccc1C1C(C)CCCC1OCCN(C)C (stereo not drawn) | -13% | 1.55
Fc1ccc(CN2C[C@@H]3CC[C@H]2CN(Cc2ccncc2)C3)c(F)c1 | -12% | 1.16
CON(C)C(=O)CNC(=O)c1ccccc1C | -14% | 2.16
O=C(NCc1ccc(F)c(Cl)c1)c1[nH]nnc1-c1cccc(Cl)c1 | -6% | 1.2
COc1ccc(C(=O)Nc2cnc(N3CCNCC3)c(C(=O)N(CC(C)C)CC(C)C)c2)cc1 | -3% | 0.39
Cc1cc(NC(=O)N2CCc3c(Cl)cccc32)n(C)n1 | -16% | 2.55
CC(C)(C)CNC(=O)c1ccc(Cl)c(N)c1 | -15% | 2.17
O=C(Cc1c(F)c(F)c(F)c(F)c1F)NC1CCCCC1C(F)(F)F (stereo not drawn) | -8% | 1.27
Cc1ccc(N(C)CCn2c(C)csc2=O)c(C)c1 | -14% | 1.44
CCCn1cc(CNc2nnc(-c3ccoc3C)o2)cn1 | 8% | -1.29
Cc1nc(-c2ccc([C@H](C)N3CCCCC3)cc2)n(C)n1 | -12% | 1.88
CN(C(=O)c1ccc(NC(=O)CC2CCC2)cc1)C1CCOCC1 | -10% | 1.77
COCC[C@H]1CCCN(C(=O)c2cncn2C)C1 | -8% | 1.22
Cc1ccc(C(=O)N[C@H]2CCCN(Cc3ccccc3)C2)n1C | 4% | -0.76
CC[C@@]1(C2CC2)NC(=O)N(CC(=O)c2ccccc2C)C1=O | 9% | -1.45
CO[C@H]1C[C@@H](O)C12CCN(c1cccc(C#N)n1)CC2 | -16% | 2.05
CCOc1ccc(C(=O)N2CCC[C@@]3(C2)Nc2cccnc2N=C3NC2CCCC2)cc1 | 28% | -3.21
COCCN(Cc1ccc(C)s1)C(=O)NCc1cscn1 | 1% | -0.13
Cc1c(N2CCC(C(=O)N3CCN(C4CCCCC4)CC3)CC2)c(=O)n(C)c(=O)n1-c1ccccc1 | -6% | 1.14
CC[C@H](C)NC(=O)CN1C=NS(=O)(=O)c2ccccc21 | -10% | 1.17
